Data on 167 variants can be found in the RNAGym collection of RNA variant scans (doi:10.7554/elife.90254).

B1: LINE1-mini (parent)
chain: GGCAGAGCUCAACACAGCGUGGCAAAGUGGCUGUGGCUAGACUGCC

The source gives no read counts; variants with many changes may rest on few reads.

The variants in the series derive from B1. The series can be described thus: self-cleavage, relative activity (ratio to wild type); higher = more cleavage; in vitro, sequencing; the parent is a self-cleaving ribozyme.
For C3A G5U U9C, the self-cleavage amounted to 0.07.
For the variant C3G C31G C37U, the self-cleavage was found to be 0.28.
Consider A6G U38G C45A, for which the self-cleavage is 0.
Turning to G7U G36A C37G U43C, the self-cleavage was 0.14.
Next, A6C G36C C42A C46U: 0.04.
Take C8U C15U G22A: the self-cleavage amounted to 0.29.
The figure for G7U G17A G44A is 0; for C10A G30C A39U C45A it is 0.07.
As to U9G G19C C37G, the self-cleavage stood at 0.
Next, G17U U20A A25U: 0.04.
The figure for C18A A24G U32G is 0.13; for A4G G5A C42U it is 0.45.
A11G U20C U28G C37A: the self-cleavage amounted to 0.01.
The figure for C3G C10G G27C is 0.06.
Next, U9G G17U C37A: 0.17; C10U A11U U28G G36C: 0.03.
Next, A6G C37A U38G: 0.01; G5A C8U U9G C31U: 0.06; A6C G22U A24G: 0.44.
Consider U9C A25C G35U, for which the self-cleavage was 0.06.
For G7C C13G C18U G36U C46G, the self-cleavage was determined as 0.02.
Next, G1C C10A C15G: 0.01; C13G G17C A25U: 0.04; A11U G19C G22U A24G G40U: 0.
For G2C U9G C10U G22U G29C, the self-cleavage was 0.01.
With A6C C18A U28C, the self-cleavage was found to be 0.04.
In the case of A12G G19U G21C G44A, the self-cleavage is 0.01.
As for G5A G19A U34C, the self-cleavage stood at 0.07.
The figure for C8U A16C U20C G27U is 0.08.
The figure for G27A G36C C46A is 0.07; for G2U A4G A12U G35C C46A it is 0.09.
C3A G5A G7U A12C A25U A26U G33C G36C: the self-cleavage is 0.14.
On to G7C A11U G21U G27U, for which the self-cleavage is 0.01.
The figure for C13A C23U G27C U28A is 0.03.
The figure for A16C G17A G19A G35C is 0; for A24U A25C G30C it is 0.37; for G27C U28A G33C U38C it is 0.04.
The figure for A6U U9C G27C G40U is 0.01; for C3U A12C A16U C18G U38C it is 0; for A11G G36U C42G it is 0.01.
Regarding A16C G17U C18U G30U A39C, the self-cleavage stood at 0.02.
Next, C3A G7C A11C G17U U34C: 0.04; G2A C3G C10U G19U C42A G44C: 0.07.
With C3U A24U U38G C46G, the self-cleavage came to 0.01.
Next, C10G A11C A16U G19A U20C G30A U38G: 0.
The figure for C13A C18U G19U G21U C37A is 0.03.
The figure for C8G A14G A16U G44U is 0.02.
In the case of G30U G35C C37A U38C, the self-cleavage stood at 0.04.
Take A14U A16U G19A G21A: the self-cleavage worked out at 0.11.
The figure for G1U G5A C10G is 0.02; for G5U G19A G21U A26G U32C C46U it is 0.03.
Take G1U G7C C10A: the self-cleavage worked out at 0.07.
The figure for G7U A12C C13A A14U is 0.08; for U9C G17A G21U C23U G35C it is 0.01; for A6G G22A G33A G44A it is 0.01.
Next, C8A G30C C31G U32G: 0.07; G2A C15A G22C C46G: 0.15.
Next, A4G A6C C8G A26U U38G A41U G44A: 0.11; G2C C8G A12C G29U G44U: 0.02; G7C G22A A25C U32C C37G: 0.04.
In the case of A6U G7U C23G C45G, the self-cleavage is 0.
G7U C10G A26U G27A G29U U38A: the self-cleavage was 0.01.
Take A6G G17U U43A: the self-cleavage was 0.03.
As for C8A C15U C45A, the self-cleavage was 0.21.
G21A A24G C46G: the self-cleavage is 1.92.
A12C C13A G17C U38A C45A: the self-cleavage is 0.05.
C18U U20C G29A: the self-cleavage was determined as 0.22.
Next, C3A U9A A25U G33U U38C C42A: 0.38.
With A12U C45U C46A, the self-cleavage was found to be 0.37.
In the case of A11C C13G C15U A24C G36A, the self-cleavage was determined as 0.02.
The figure for C3A A11U G19C G21U G30U A39C is 0.01.
Turning to G1U A4U G7U, the self-cleavage is 0.29.
On to A6C A25G G27C C42G, for which the self-cleavage amounted to 0.
In the case of A11C C13A A41U, the self-cleavage came to 0.
Next, G17C C37A C45U C46A: 0.06.
Next, C10U A11C A14C A26G: 0.04.
Next, U9G A26U G30A: 0.09.
As for G5U A16C C42A, the self-cleavage was found to be 0.07.
For the variant C13A A41U U43G, the self-cleavage turned out to be 0.18.
For A4C G5U G17U G35C G36A U43C, the self-cleavage came to 0.02.
For the variant C3U A6U G44U, the self-cleavage was determined as 0.51.
The figure for C3A A6U G7U A24U is 0.8; for A26U G30U G36A C42A it is 0.01.
The figure for G2U G5A G22C C46A is 0.02.
Take G7A U28G C45A: the self-cleavage stood at 0.22.
On to C15A G17U U28A G33U, for which the self-cleavage was 0.04.
For C3U U20G C31A C46A, the self-cleavage was 0.03.
The figure for A11C A16C C46U is 0.01; for C3G U20G G22U G29U C37U it is 0.14; for C3U A11G G33A it is 0.06.
As for U28G U32C C42U, the self-cleavage came out at 0.04.
Next, G1U A11U A39C G44A: 0.01; C31U C37A C46U: 0.01.
Regarding U20C U28G G36C, the self-cleavage is 0.04.
Take G1C G7C G35A: the self-cleavage turned out to be 0.02.
As for C15U C18G A26G G36U C37A A39C, the self-cleavage was determined as 0.01.
With C10U A11C G17A G21C C42U C46U, the self-cleavage was 0.02.
For G2U C8U A12U G29A, the self-cleavage came to 0.17.
The figure for U9A A11C A39U is 0.01; for U9G G21U G22C it is 0.01; for A24G A26U G27A C31G it is 0.04.
The figure for G5C G27A G29U C31A is 0.05; for G1U U9G G36U C37U it is 0.01; for C15G G19U U20C G22U A41G C42G it is 0.
On to C3U A26C U38A, for which the self-cleavage is 0.08.
Next, A4G A25U G40C C42G: 0.02; U9C C13A G17C: 0.02.
Next, C8U U9G C31A: 0.03; C3U C10A A11G A25C C46G: 0; C10A G35C G44U: 0.03.
The figure for C18A A26G G33U C45U is 0.05.
G2U A6C C18A G30A: the self-cleavage was 0.02.
Turning to U9G G35U C45G, the self-cleavage is 0.04.
The figure for A26U G35C U43G is 0.46; for C3A G5A C10G C15A C46A it is 0.05.
The figure for A24U G30U C42U G44U is 0.03.
As to A16G G21C C31A G33A, the self-cleavage came to 0.
Next, G5A A25C G27A C45U: 0.2; C10A G17A G19U U32G A39U: 0.13.
Next, A6C G7A C8U C23G: 0.15.
As for A4U C8A G33U C37A, the self-cleavage was found to be 0.17.
For U34A A39G C45G, the self-cleavage is 0.03.
Next, A24U G35U A41C: 0.06; G2A C10A A41C: 0.02; A4G G19U C42U G44C: 0.11.
As to G2A C15A G21U U32A G33U C37A C45G, the self-cleavage is 0.1.
As to C3U A24G G40C, the self-cleavage came to 0.02.
The figure for C13G C15A G17U A24C C46A is 0.08; for G7A C31A C42G it is 0.04.
The figure for G1A C15A G33C is 0.08; for G7C A26G G27C U34G C45U it is 0.04.
On to C3U U9G C45G, for which the self-cleavage was 0.03.
Consider A12C A25C C46U, for which the self-cleavage was found to be 0.05.
In the case of G1C U9C C15A G19C A26U G40A A41G, the self-cleavage was 0.
With G2U C37G G40A, the self-cleavage worked out at 0.03.
Next, G22A A24U A25U: 0.45; G19C A24U G30A G44C: 0.08; C3A G7U U9G: 0.32.
As to A6C U32A C42U, the self-cleavage came out at 0.01.
G2C C13G A14G: the self-cleavage turned out to be 0.02.
The figure for G2A A12U U20A A26C U38A is 0.11; for G1U A4G G7U G19U G21U C23G A26U G33C G40A it is 0.06; for G5U A25U G33U G35C it is 0.07.
Turning to G5A G7C C18G A26G, the self-cleavage amounted to 0.04.
The figure for A25U G27A C45G is 0.26; for G1C U28A C31G it is 0.04; for C10A U28G C42U it is 0.
The figure for U9C G29C C31A U32G G33C U34A C42U is 0.01.
Next, U20G G27A C31A A39U: 0.28; C18A G21U A41G C45U C46A: 0.03; G5U C15A G22U G44U: 0.02.
On to C3G U28C G40U A41C C46U, for which the self-cleavage came to 0.06.
G1C C3G U34A: the self-cleavage came out at 0.01.
For the variant U9C A16U G30A C31A G33U, the self-cleavage stood at 0.
In the case of G5C C8U G35A G40A, the self-cleavage came to 0.2.
As for C10A U20A A25G U34A, the self-cleavage was found to be 0.04.
As to U9A G29A C42A C46U, the self-cleavage came out at 0.2.
With A16G G36C G40A, the self-cleavage stood at 0.1.
On to G5A C37G G40A U43G, for which the self-cleavage is 0.02.
For G1U C3G G22U, the self-cleavage stood at 0.43.
As to G1U A16G C45U, the self-cleavage was 0.07.
For the variant C8G G33C A39U C42U, the self-cleavage was determined as 0.04.
Consider A24U G30C G33C, for which the self-cleavage is 0.03.
As to A4C A6U U20A G21C A25G G29A, the self-cleavage came to 0.03.
With G5A A25G A26U G27U, the self-cleavage is 0.17.
Next, A4C C13U A14G A41C: 0.02; A4G A14C A26G G27C A39G A41G: 0.
